Assay results from the RNAGym collection of RNA variant scans (doi:10.1073/pnas.2313332121).
Variants at the background level are over-represented here.

B1: TPR 5TU (parent)
chain: GGAUCUUCUCGAUCUAACAAAAAAGACAAAUCUGCCACAAAGCUUGAGAGCAUCUUCGGAUGCAGAGGCGGCAGCCUUCGGUGGCGCGAUAGCGCCAACGUUCUCAACUAUGACACGCAAAACGCGUGCUCCGUUGAAUGGAGUUUAUCAUG

Variants of: B1
Assay: polymerase ribozyme fitness, log enrichment relative to wild type (log ratio); higher = more active; in vitro selection for triplet polymerase activity
Procedure, shortened: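 Both subunits of a heterodimeric triplet polymerase ribozyme were given their own mutant library, built by PCR and transcribed. Each library was annealed with a biotinylated primer, the partner subunit and triplets, incubated frozen at −7 °C, and its extended constructs gel-excised, captured on streptavidin beads and amplified by RT-PCR, all in one round done in triplicate. Fitness is the logarithm of genotype enrichment relative to wild-type enrichment, with replicates averaged by inverse-variance weighting. That logarithm is base 2, and Illumina-sequenced genotypes needed ≥10 input reads and ≥1 read per output.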

Polymerase ribozyme fitness (log ratio), -3.83:
A12C A17U U53A C96A U139G

Polymerase ribozyme fitness (log ratio), -2.97:
A12U C85A C96A

Polymerase ribozyme fitness (log ratio), -0.243:
U13G C57A

Polymerase ribozyme fitness (log ratio), -0.54:
A12G C87U

Polymerase ribozyme fitness (log ratio), ≤ -4.2:
A12C A37C C72A U90G U101A C103U A138G A142U
A12U U77G G84A C85A G94A G100A C105U G128U U130G
A12G C27U A40U A73G C87G C95A G124U G136A
U13A U53A C85U C87U G88C
A12U A20U G81A C87A C96A U102C C125U
G11U G50U U56A C87U U151C
U13C A20C A52C U90G G94A C95A C105U U130G
U13A A17U C35U C75U C108U U144C U151G
U13G C32U C36U U55A G68U U77G G143U U144C
U13A G58C G94A C108G C114G
A12G G50U G83A C87U C114U C118G A138G G141U
A12U U56A C85G G88A C116G A119U A120C
G11U U13A A17U A26U A41C U45A C87A C108U A142C A147U
A12C G25C G68U C75A C76G C93G G141C
A12U C14A U44G G59A G65A C79A C105G
A12G C18U A47C A60G C85U G143U
A12C G42U G50C C69A A73G C116A A119G A150U
A12G C14G A22G U61A G71A C99U C123U A142G
U13C A37U U102C C105U A119G
A12C A24U A49C C69G C93G A98G
U13G C96U A97U A137U
U13G A21C A23U A30G U31A G62A C76G A89U A91U C114U C118G U148C
U13G A52C C87A G141A
A12C A26U A40C U44G G65U A107G U111G G126U
A12U A40C G84A C99A G124A U148G
G11U C27U C87G C149G
A12U A40C A47U C85G A89G U148G
A12U C76U G80C C87U C108G A137U
A12U C38U G65C C69U C125G
A12U A23C C54U C116G A147C U151A
U13G G48C G81A C96A
A12U A22C A29G C76U G94A G117U
A12U A16G U44A A47C G58C U61A C87U C108G A119G
A12G G62U A66C G81A C95G C114A
A12G G25C G68C G84U U135G A150G
U13A A17U U31G G59A C95U A110U A137G G140U G141U
A12C A28G A39C G74C
A12U G68A G71A C93U U134G
U13C C51A G83C A89G C125U
A12U A16U A17U C27U A47U G48A C76G G86U U145A G152U
G11U G34A G50A C85U U90C G143A
A12G C54U G58C C79U C99U C125A
U13A C14G C27U U56C C57A G58C G62A C87G U90C C123U C131G G152C
A12C G34A C87A A91G C103U G117A G133U
U13A C87A A110C U134C
U13A C57U G58A U61A C63U G80C C85G C95U C125U U127C
A12U C27U G58C C96U G124C G140U
U13G C36G A41U G50A G83A G86U C95U
A12G C85A A89G A97G A98C U139A
A12G U53A G67C C75U C76U C96U U130G
A12G C14G U31A U55G G88U
A12C C54A U56A G70A A97U C105A A106C A107G A122G
A12C A24G U44G C85U C87U
A12U C18G G50A G70C A89U C93U A106G G126A G141A C149U
A12C U77G A89C C93G C105A
A12U A21U A39C G92A U109G A137G
A12G G50U U61A G68A A91G C96G A106G
A12C A20C C57U U102G A106U U148C
A12G C51G G68C C85G A150C
A12U C18G A20G A21C U53G C72U C87G G88C G117U U127C G143A
U13G G70U C85U C99A A142C
A12U A28U A29G A30U G42C A52C U61A C63U G83A C87U C103A
U13C A37G G67A U134A G152A
A12C C35A C85G C103G C118G G141C
U13A A41G A52C C75A C93A C108A U144A
U13A U15G G34U G88C G92A C96A
G11U C35A G136A U146G
A12U A41C G83C C118G G133U
A12U C38U U77C A98G G124C

Polymerase ribozyme fitness (log ratio), -2:
A12G U55G
A12G A52C C93U A98U G124A

Polymerase ribozyme fitness (log ratio), -0.0387:
A12G C63U

Polymerase ribozyme fitness (log ratio), -1.66:
A12G G80C G81C C118U U135A

Polymerase ribozyme fitness (log ratio), -1.83:
A12C C38G C85A C116A A120G

Polymerase ribozyme fitness (log ratio), -3.25:
A12G G84A G143A A147G

Polymerase ribozyme fitness (log ratio), -1.48:
A12C C85U A142U

Polymerase ribozyme fitness (log ratio), -0.788:
A12U C38U G83U

Polymerase ribozyme fitness (log ratio), -0.24:
A12G C38U C99U

Polymerase ribozyme fitness (log ratio), 0.668:
A12G U55A

Polymerase ribozyme fitness (log ratio), -2.94:
U13C A19C A89U C95U U146G A150U
